According to PubChem BioAssay AID1468 (National Center for Advancing Translational Sciences (NCATS), 2008):
Screen size: about 280,000 compounds; about 1,100 (0.39%) were called active. The inconclusive results got no clear call from the source; some entries with a clear call stand among them for comparison. The call rests on the fitted dose curve; in most records, active means well fitted inhibition curve with a large enough effect; inconclusive means small, poorly fitted or top-dose-only effect, or effect the other way; inactive means flat fitted curve, though single readings scatter. No potency is given beside an inconclusive call; the fits are too rough.
Further: nearly all actives have a fitted effect of over 55% in size.
On the % scale 0 is the no-effect control and ±100 the full control effect; potency means the concentration at half of the fitted maximal effect; tags describe the fitted curve by direction and shape.

Each compound was assayed against Microtubule-associated protein tau (Homo sapiens) (UniProt P10636) (assay: qHTS for Inhibitors of Tau Fibril Formation, Fluorescence Polarization). Conditions: K18 P301L tau heparin fibrillization, Alexa594 FP, 6 h; series mostly up to 57.7 µM.
UniProt P10636, sequence (P10636 whole entry, looked up, the tested form may be a part): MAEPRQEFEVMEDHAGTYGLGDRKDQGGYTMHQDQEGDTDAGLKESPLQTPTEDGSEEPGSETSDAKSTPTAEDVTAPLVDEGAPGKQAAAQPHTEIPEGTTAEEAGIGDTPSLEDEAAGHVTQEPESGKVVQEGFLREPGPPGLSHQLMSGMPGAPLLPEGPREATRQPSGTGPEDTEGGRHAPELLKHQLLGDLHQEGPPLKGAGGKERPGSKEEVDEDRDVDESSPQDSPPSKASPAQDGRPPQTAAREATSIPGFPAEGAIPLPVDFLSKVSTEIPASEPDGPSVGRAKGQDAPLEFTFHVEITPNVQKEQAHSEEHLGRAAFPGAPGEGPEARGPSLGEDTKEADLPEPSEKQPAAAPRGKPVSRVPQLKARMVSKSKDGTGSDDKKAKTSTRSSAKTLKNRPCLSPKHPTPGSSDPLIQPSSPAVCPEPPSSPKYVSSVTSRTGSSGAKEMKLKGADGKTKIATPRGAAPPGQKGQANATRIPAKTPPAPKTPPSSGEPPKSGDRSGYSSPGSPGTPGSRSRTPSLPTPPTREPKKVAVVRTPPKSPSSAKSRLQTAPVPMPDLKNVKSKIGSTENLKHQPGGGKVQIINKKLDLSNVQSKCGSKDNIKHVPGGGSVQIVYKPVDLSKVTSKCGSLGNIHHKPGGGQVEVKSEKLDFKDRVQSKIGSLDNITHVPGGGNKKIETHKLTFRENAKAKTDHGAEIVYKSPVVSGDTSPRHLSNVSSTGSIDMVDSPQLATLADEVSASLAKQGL
In short: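 Human tau K18 […] P301L fragment, 15 uM unlabeled plus 0.24 uM Alexa 594-labeled tau (final), with compound and 20 uM heparin in 100 mM sodium acetate pH 7; 6 hr at 37 C, then Alexa 594 FP read.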
For `Cc1cccc(Nc2ncnc3c2cnn3Cc2ccccc2)c1`, the Potency was inconclusive [inhibitor, partial curve, poor fit].
For `Cc1ccc(N(C(=O)CCl)C(C(=O)NC2CCCCC2)c2cccnc2)cc1C` (centres undefined), the Potency was inconclusive [activator, single point].
`COc1ccc(C2CC(c3c(O)cc(C)oc3=O)=NCCS2)c(OC)c1` (centres undefined) was tested, and the Potency was inconclusive [inhibitor, partial curve].
`CCN(CC)S(=O)(=O)c1cc(C(=O)OCC(=O)c2ccc3c(c2)NC(=O)CO3)ccc1Cl` was tested, and the Potency was inconclusive [inhibitor, partial curve].
`CCOC(=O)c1ccc(NS(=O)(=O)c2ccc3[nH]c4c(c3c2)CCCCC4)cc1` was tested, and the Potency was inconclusive [inhibitor, single point].
`O=C(O)c1ccc(Cl)c2c1C1C=CCC1C(c1ccccn1)N2` (centres undefined) was tested, and the Potency was inconclusive [inhibitor, single point].
With `CCN1C(=O)C(Cc2nc3ccccc3c(=O)n2-c2ccccc2)c2cc(Br)ccc21` (centres undefined) the Potency was “inactive”.
With `O=C(O)[C@H]1CCCC[C@H]1C(=O)Nc1ccc(Nc2ccccc2)cc1` the Potency was “inactive”.
`COc1ccc(C)cc1NC(=O)CSc1nc(=O)n(Cc2ccccn2)c2c1CCC2` was tested, and the Potency was “inactive”.
`CCCN1C(=O)C(NC(C)=O)c2ccccc21` (centres undefined) was tested, and the Potency was “inactive”.
`CCOC(=O)c1cnc(SCc2ccccc2)nc1N` was tested, and the Potency was “inactive”.
In the case of `O=C(CC1Sc2ccccc2NC1=O)Nc1cccc(C(=O)O)c1` (centres undefined), the Potency is reported as inconclusive [inhibitor, single point].
For `Cc1ccc(S/C(=N\S(=O)(=O)c2ccc(Cl)cc2)c2ccccc2)cc1`, the Potency was inconclusive [inhibitor, single point].
In the case of `CN(C)CCCN(Cc1ccccc1)C(=S)NCc1ccccc1`, the Potency is reported as “inactive”.
In the case of `O=C(Nc1nc(-c2ccccn2)cs1)c1ccc(Cl)s1`, the Potency is reported as inconclusive [inhibitor, single point].
With `COc1ccc(/C=C(\C#N)C(=O)C(C)(C)n2cncn2)cc1` the Potency was inconclusive [inhibitor, single point].
In the case of `CCOc1ccc(NC(=O)CN2C(=O)C3(SCC(=O)N3c3ccc(F)cc3)c3ccccc32)cc1` (centres undefined), the Potency is reported as “inactive”.
With `Cc1cccc(C)c1NC(=O)CN1C(=O)c2cccc3cccc1c23` the Potency was “inactive”.
In the case of `Fc1ccc(F)c(C2=NNC(=Nc3ccccc3F)SC2)c1`, the Potency is reported as “inactive”.
`c1ccc(-c2nccc(-c3ccc4c(c3)OCO4)n2)cc1` was tested, and the Potency was inconclusive [inhibitor, single point].
With `O=C(Nc1c(C(=O)N2CCN(c3ccccc3F)CC2)oc2ccccc12)c1ccccc1F` the Potency was inconclusive [inhibitor, single point].
In the case of `S=C(NCc1cccnc1)Nc1ccc(Cl)c(Cl)c1`, the Potency is reported as inconclusive [inhibitor, partial curve].
For `COc1ccccc1NC(=O)c1c(N=Cc2c(O)ccc3ccccc23)cnn1C`, the Potency was inconclusive [inhibitor, single point].
With `O=C(CSCc1c(Cl)cccc1Cl)NCc1ccco1` the Potency was “inactive”.
For `c1ccc2c(c1)OCC(c1csc3ncnc(N4CCOCC4)c13)O2` (centres undefined), the Potency was “inactive”.
In the case of `CCc1ccc(N(C)S(=O)(=O)c2ccc3[nH]cc(C(=O)NCC4CCCO4)c(=O)c3c2)cc1` (centres undefined), the Potency is reported as “inactive”.
For `CC(=O)N1CCOc2cc(S(=O)(=O)N(C)Cc3ccccc3)c(Cl)cc21`, the Potency was “inactive”.
With `CSc1nc(Oc2ccc3ccccc3c2)c2sccc2n1` the Potency was inconclusive [inhibitor, partial curve].
For `Cc1cccc(OCCSc2nc3ccc(NC(=O)COc4ccccc4)cc3s2)c1`, the Potency was inconclusive [inhibitor, partial curve].
In the case of `Cc1ccc(C)c(CN2C(=O)c3ccccc3S(=O)(=O)c3ccc(C(=O)NCc4ccccc4)cc32)c1`, the Potency is reported as inconclusive [inhibitor, partial curve].
`Cc1c(C(=O)NCc2ccccc2Cl)sc2nc[nH]c(=O)c12` was tested, and the Potency was “inactive”.
For `O=[N+]([O-])c1ccc(O)c(/C=N/Nc2nc3ccccc3[nH]2)c1`, the Potency was “inactive”.
In the case of `COc1cccc(S(=O)(=O)NCc2ccc(C(=O)Nc3ccc(C)cc3)cc2)c1`, the Potency is reported as inconclusive [inhibitor, single point].
With `CCOCCCNC(=O)C(=O)Nc1c2c(nn1-c1ccc(OC)cc1)CSC2` the Potency was inconclusive [inhibitor, single point].
With `Oc1ccc(C(=S)N2CCCCC2)cc1` the Potency was “inactive”.
In the case of `Cc1sc(NC(=O)Cc2ccc3c(c2)OCO3)nc1-c1ccc2c(c1)CCN2C(=O)c1ccc(F)cc1`, the Potency is reported as “inactive”.
`Cn1cc([N+](=O)[O-])c(C(=O)Nc2ccn(Cc3c(F)c(F)cc(F)c3F)n2)n1` was tested, and the Potency was “inactive”.
In the case of `CSc1nc(O)c(C(c2cccc([N+](=O)[O-])c2)c2c(O)nc(SC)[nH]c2=O)c(=O)[nH]1`, the Potency is reported as inconclusive [inhibitor, partial curve].
In the case of `CCOC(=O)c1cnc(-n2nc(C)cc2C)nc1Nc1ccccc1OC`, the Potency is reported as “inactive”.
`COc1ccc(S(=O)(=O)Nc2c(C(=O)O)[nH]c3ccccc23)cc1OC` was tested, and the Potency was inconclusive [inhibitor, single point].
For `COc1cccc(N2CC(NC(=O)C3CC3)CC2=O)c1` (centres undefined), the Potency was “inactive”.
`CC1(c2ccc(OC(F)F)cc2)NC(=O)N(CC(=O)Nc2ccc3c(c2)OCO3)C1=O` (centres undefined) was tested, and the Potency was inconclusive [activator, partial curve].
In the case of `CCN1C(=O)[C@H]2[C@H]3[C@H](O)[C@H](O)C/C(=N/NC(=O)OCc4ccc(OC)cc4)[C@@H]3CC[C@@H]2C1=O`, the activity, negative = inhibition is reported as inactive: 4.13% [at 11.6 µM].
With `CCc1ccc2c(c1)c(=O)c(S(=O)(=O)c1ccccc1)cn2CC(=O)Nc1ccc(OC)cc1` the Potency was “inactive”.
For `CC(=O)c1cc(-c2ccccc2)[nH]c1N1CCCC1`, the Potency was inconclusive [inhibitor, partial curve].
For `COC(=O)COc1ccc(/C=N/NC(=O)c2ccc(N(Cc3ccccc3)S(C)(=O)=O)cc2)cc1`, the Potency was inconclusive [inhibitor, partial curve].
For `O=c1[nH][nH]c(-c2ccccc2O)c1C(C[N+](=O)[O-])c1ccccc1` (centres undefined), the Potency was “inactive”.
For `COc1ccccc1OCCn1cc(C#N)c2ccccc21`, the Potency was inconclusive [inhibitor, single point].
`Cc1ccc(OCC(=O)Nc2cccc(S(=O)(=O)N3CCCCCC3)c2)c([N+](=O)[O-])n1` was tested, and the Potency was “inactive”.
For `CCOc1ccc2c(c1)c(=O)c(C(=O)c1ccc(CC)cc1)cn2CC(=O)Nc1ccccc1C`, the Potency was inconclusive [inhibitor, partial curve].
With `Cc1ccc(C)c(N2CCN(CCCNC(=O)Nc3ccc(Cl)cc3)CC2)c1` the Potency was inconclusive [inhibitor, partial curve, poor fit].
`CCn1c(SCC(N)=O)nc2sc3c(c2c1=O)CCN(C)C3` was tested, and the Potency was inconclusive [inhibitor, partial curve].
For `Cc1cccc(Oc2ncnc(N)c2[N+](=O)[O-])c1`, the Potency was inconclusive [inhibitor, single point].
For `CCCCN(C)C(=O)Cn1c(SCC(=O)Nc2ccc(C)c(C)c2)nc2ccccc21`, the Potency was “inactive”.
`O=c1cc(CSc2nnc(COc3cccc4ccccc34)o2)c2ccccc2[nH]1` was tested, and the Potency was inconclusive [inhibitor, single point].
In the case of `O=C(Nc1ccc(CN2CCOCC2)cc1)c1cccc(-c2cc3ccccc3oc2=O)c1`, the Potency is reported as inconclusive [inhibitor, single point].
With `COC(=O)[C@H]1O[C@@H](c2cc(OC)c(C)c(OC)c2OCc2ccccc2)[C@H](C)[C@@H]2O[C@]12C` the Potency was “inactive”.
For `CCOC(=O)c1c(NC(=O)Cn2cnc3scc(-c4ccc(C)cc4)c3c2=O)sc(C)c1C`, the Potency was inconclusive [inhibitor, single point].
For `Fc1ccc(N/N=C/C=C/c2ccccc2)c(F)c1`, the Potency was inconclusive [activator, single point].
`c1ccc(-c2nc(-c3ccccc3)c(Nc3ccc4ccccc4c3)o2)cc1` was tested, and the Potency was inconclusive [inhibitor, single point].
`CN(C(=O)COC(=O)C1CCN(S(=O)(=O)c2cccs2)CC1)c1ccccc1` was tested, and the Potency was “inactive”.
For `Cc1cccc(C2(c3cccc(C)c3)CC2C(=O)Nc2ccc([N+](=O)[O-])cc2O)c1` (centres undefined), the Potency was inconclusive [inhibitor, single point].
For `Cc1ccc(NC(=O)Cn2c(=O)n(Cc3nc(-c4ccccc4)no3)c(=O)c3cc4c(cc32)OCO4)c(C)c1`, the Potency was inconclusive [inhibitor, partial curve, poor fit].
In the case of `COc1ccccc1N1CCN(C(=O)CN2C(=O)c3cccc4cccc(c34)C2=O)CC1`, the Potency is reported as inconclusive [activator, partial curve].
`COc1ccc(Cl)cc1NC(=O)CSC1=Nc2ccccc2C2=NC(CC(=O)NCc3cccs3)C(=O)N12` (centres undefined) was tested, and the Potency was inconclusive [inhibitor, single point].
With `O=C(NCc1ccccc1)c1cnc(N2CCCCC2)c2ccccc12` the Potency was “inactive”.
With `O=C(c1cc(-c2ccc(O)cc2)on1)N1CCN(c2ccccc2)CC1` the Potency was inconclusive [inhibitor, single point].
In the case of `O=C(CCN1CCOCC1)c1ccc(Cl)cc1`, the Potency is reported as inconclusive [activator, single point].
`COc1ccc(NC(=O)c2ccc(Cl)c(S(=O)(=O)N3CCc4ccccc4C3)c2)cn1` was tested, and the Potency was inconclusive [inhibitor, partial curve].
